#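 All cell lines were grown in 96-well plates and treated with compound for 48 hours. GI50 = concentration required for 50% inhibition of growth.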 The source made the active and inactive calls. No stated cut-off is given here; in the data, active = GI50 up to about 1.1 µM and inactive = higher.
# Tested on: NCI-H322M
# Assay: NCI tumour cell line growth inhibition, 48 h
row,SMILES,GI50
1,COC(=O)/C(=C\c1ccco1)P(=O)(OC)OC,inactive: 32.3 µM
2,COC(=O)/C=C/c1ccc2nncnc2c1.COC(=O)/C=C\c1ccc2nncnc2c1,inactive: 50 µM
3,COc1ccc2c3c1OC1c4[nH]c5ccccc5c4CC4(O)C(C2)N(C)CCC314 (stereo not drawn),inactive: 27.1 µM
4,Clc1ccc(Cn2cc(/C=N/n3cnnc3)c3ccccc32)cc1,inactive: 49.4 µM
5,O=C1/C(=C/c2cccc([N+](=O)[O-])c2)COc2ccccc21,inactive: > 30.3 µM
6,Nc1ccc2nc(Nc3ccc(Cl)c(Cl)c3)cnc2c1,inactive: 23.2 µM
7,Nc1ncnc2c1N=CN(Oc1ccccc1)N2,inactive: > 100 µM
8,Clc1ccc(Cc2nc3cc4ccccc4cc3[nH]2)cc1Cl,inactive: 23.7 µM
9,Cn1cnc(C(N)=[Se])c1N,active: 0.344 µM
10,CC1Cc2c(N)nc(N3CCOCC3)nc2NC1=O (stereo not drawn),inactive: > 100 µM
11,CC(=O)N[C@H]1CCCC[C@@H]1OC(C)=O,inactive: > 100 µM
12,COc1cc(C2c3cc4c(cc3OC3(OC)COC(=O)C23)OCO4)cc(OC)c1OC(C)=O (stereo not drawn),inactive: 1.71 µM
13,CC(=O)OCC(Br)C1(C)CCC(C(C)(C)Br)O1 (stereo not drawn),inactive: > 100 µM
14,O=C1c2cc(O)c(O)cc2O[C@H](c2ccc(O)c(O)c2)[C@H]1O,inactive: > 100 µM
15,Cc1cc(NC(=O)NC(=O)c2ccccc2NC(=O)C(C)N)ccc1Oc1ncc(Br)cn1 (stereo not drawn),active: 0.262 µM
16,N[C@H](C(=O)O)[C@H](Cl)CC(=O)O,inactive: > 100 µM
17,CN(C)c1cccc2c1C(=O)C=CC21c2ccc(N(C)C)c3c(N(C)C)ccc(c23)C(c2ccccc2)C1c1ccccc1 (stereo not drawn),inactive: 19.1 µM
18,COC(=O)/C(=N\NC(=S)NN)C(C(=O)OC)C(=O)C(=O)Nc1cccc(C(F)(F)F)c1 (stereo not drawn),inactive: > 100 µM
19,Nc1ccn(C2OC(COP(=O)(O)Oc3ccccc3)C(O)C2O)c(=O)n1 (stereo not drawn),inactive: > 100 µM
20,CN1C(c2ccccc2)CC(C)(O)CC1c1ccccc1 (stereo not drawn),inactive: > 100 µM
21,CC(C)(C)c1cc2c(OC/C=C/c3ccccc3)c(c1)Cc1cc(C(C#N)(OC/C=C/c3ccccc3)OC/C=C/c3ccccc3)cc(c1OC/C=C\c1ccccc1)Cc1cc(C(C)(C)C)cc(c1OC/C=C/c1ccccc1)Cc1cc(C(C#N)(OC/C=C\c3ccccc3)OC/C=C/c3ccccc3)cc(c1OC/C=C\c1ccccc1)C2 (stereo not drawn),inactive: > 100 µM
22,CCCCNc1nc(SC)nc2[nH]cnc12,inactive: > 100 µM

row,SMILES,GI50
1,CCOC(=O)C1CCC/C1=N\NC(=N)N.Cc1cc(O)c(C(C)C)cc1S(=O)(=O)O (stereo not drawn),inactive: > 100 µM
2,O=C(/C=C\c1ccccc1)Oc1ccc(/C=C2\CCCCC2=O)cc1,inactive: > 100 µM
3,Nc1nc2c3nc(Nc4ccccc4)sc3nc(=O)n2c2sc(Nc3ccccc3)nc12,inactive: > 100 µM
4,N#CC(=C1C=CC(=NO)C=C1)c1ccc(Cl)cc1,inactive: 24.5 µM
5,COc1cc(OCc2ccc3nc(-c4ccccc4)c(Cl)nc3c2)cc(OC)c1OC,inactive: > 100 µM
6,COCCNC1CCC(=O)c2[nH]c3ccccc3c21 (stereo not drawn),inactive: > 100 µM
7,CC1NC(=O)c2c(-c3ccccc3)nn(-c3ccccc3)c2NC1=O (stereo not drawn),inactive: > 100 µM
8,O=C(O)CCCC#CCCCC(=O)O,inactive: > 100 µM
9,COc1ccc(-n2nnc(C(N)=O)c2O)cc1,inactive: > 100 µM
10,C/C(=N/NC(=S)N(C)C)c1ccccc1O,inactive: 12.6 µM
11,O=C(Nc1ccc(/N=N/c2ccccc2)cc1)Sc1ccccc1C(=O)O,inactive: > 100 µM
12,CCOc1ccc(/C=N\N2C(=O)c3ccccc3C2=O)cc1,inactive: > 100 µM
13,COc1ccc(NC(=O)CC/C(CC(=O)C(C)(C)C)=N\NC(=O)C(N)=O)cc1,inactive: > 100 µM
14,O=C1/C(=C/Cc2ccco2)N=C(c2ccccc2)N1c1nc2c(Cl)cc(Cl)cc2s1,inactive: 40.9 µM
15,CC(C)[Si]1(C(C)C)OCC2OC(n3ccc(=O)[nH]c3=O)C(O)(CO)C2O[Si](C(C)C)(C(C)C)O1 (stereo not drawn),inactive: 17 µM
16,C/C(=C\CNc1nc(Cl)nc2[nH]cnc12)CO,inactive: > 100 µM
17,COc1cc(CC2C(=O)OCC2[C@@H](OC(C)=O)c2ccc3c(c2)OCO3)c(Br)c(OC)c1OC (stereo partly drawn),inactive: > 100 µM
18,CC(=O)Oc1ccc(C2SCc3nc4ccccc4n32)cc1 (stereo not drawn),inactive: > 100 µM
19,OC1(c2cccs2)c2cccc(Cl)c2C(O)(c2cccs2)c2c(Cl)cccc21 (stereo not drawn),inactive: > 100 µM
20,C=CC(=O)NCCSCCCOC1(C(=O)O)CC(O)C(NC(C)=O)C(C(O)C(O)CO)O1 (stereo not drawn),inactive: > 100 µM
21,CCCN(CCCCC(NC(C)=O)C(=O)NCc1ccccc1)C(=O)NCCCl (stereo not drawn),inactive: > 100 µM
22,COc1ccc(C2CC(c3c(C)nn(-c4ccccc4)c3-c3ccc(C)cc3O)=NN2c2ccccc2)cc1 (stereo not drawn),inactive: > 100 µM

row,SMILES,GI50
1,Cc1cn(C2C=CC(COP(=O)(OCc3ccc([N+](=O)[O-])o3)N(C)CCCCCl)O2)c(=O)[nH]c1=O (stereo not drawn),inactive: 13.4 µM
2,O=C1CC2(CCC(O)(c3ccc4ccccc4c3)C(C(=O)c3ccc4ccccc4c3)C2)C(=O)c2ccccc2N1 (stereo not drawn),inactive: > 100 µM
3,CCCCCCc1cc2cc(C(=O)Nc3ccccc3F)c(=N)oc2cc1O,inactive: 19.1 µM
4,COP12(OC)NC(=O)OC1(C(F)(F)F)c1ccccc1O2 (stereo not drawn),inactive: > 100 µM
5,Cc1ccc(C)c2c1C1CCCCC3(OCCCO3)C21O (stereo not drawn),inactive: > 100 µM
6,O=C(O)CCC(NC(=O)c1ccc(Oc2nc3ccccc3nc2-c2ccccc2)cc1)C(=O)O (stereo not drawn),inactive: > 100 µM
7,C=C(C)C1Cc2c(c3ccccc3n(C)c2=O)O1 (stereo not drawn),inactive: > 100 µM
8,Cc1ccc(/N=N/C(C(=O)c2ccccc2)C(=O)c2ccccc2)cc1,inactive: 22.1 µM
9,CN1CCN(Cc2cc3c(nn2)-c2ccccc2C3=O)CC1,inactive: 61.4 µM
10,C=CCOC(=O)/C(=C\c1ccc(OC)c(OC)c1)c1ccc(OC)c(OC)c1,inactive: > 100 µM
11,Cc1cccc(C(C)C)c1NC(=O)C(=O)C(C(=O)c1ccccc1F)C1OC(=O)c2ccccc21 (stereo not drawn),inactive: 16.3 µM
12,Cc1ccc(C)c2c1C/C(=C\c1ccccc1C(=O)O)C2=O,inactive: > 100 µM
13,Cc1ccc(NC(=O)C(=O)C(C(=O)c2ccc3ccccc3c2)C2OC(=O)c3ccccc32)cc1C (stereo not drawn),inactive: 11.4 µM
14,CC[C@H]1C=CCC[C@@]2(C[C@@H]3CC[C@H]4[C@@H](C(=O)OCCCCCCCCCCCCCCCC(=O)N(CCCNC(C)=O)C[C@H](CCNC(C)=O)OC(C)=O)[C@@]5(CCC[C@@H](C)O5)NC(=[N+]34)N2)O1,inactive: 1.71 µM
15,Cc1cc(OCc2nnc3n2N=C(c2cc(F)c(Cl)cc2Cl)/C(=C/c2ccc(-c4ccc(Cl)cc4)o2)S3)ccc1Cl,inactive: > 50 µM
16,C=C(C)C1CC/C(C)=C/CCC2(C)OC2CC/C(CO)=C\C1O (stereo not drawn),inactive: > 100 µM
17,COC1CCC2C(=O)CCCC2O1 (stereo not drawn),inactive: > 100 µM
18,CC(=O)Nc1n[n+]([O-])c2cc(C)ccc2[n+]1[O-],inactive: 11 µM
19,Cc1ccc2c(c1)[n+]([O-])c(N)n[n+]2[O-],inactive: > 100 µM
20,CN1C2(c3ccccc3)c3c(-c4ccccc4)sc(-c4ccccc4)c3C1(c1ccccc1)C1C(=O)N(c3ccccc3)C(=O)C12 (stereo not drawn),inactive: > 100 µM
21,CC(C)CC1c2[nH]c3ccccc3c2C[C@H]2C(=O)NC(COC(C)(C)C)C(=O)N12 (stereo partly drawn),inactive: 31.8 µM
22,C[C@@H]1O[C@@H](O[C@H]2CC[C@]3(C=O)[C@H]4CC[C@]5(C)[C@@H](C6=CC(=O)OC6)CC[C@]5(O)[C@@H]4CC[C@]3(O)C2)[C@H](O)[C@H](O)[C@H]1O [CONVALLATOXIN],active: 2.88e-05 µM

row,SMILES,GI50
1,CCN(CC)c1c(C)nnn1C1OC(COC(C)=O)C(OC(C)=O)C(OC(C)=O)C1OC(C)=O (stereo not drawn),inactive: > 100 µM
2,Clc1ccccc1C(n1ncc2ccccc21)n1ncc2ccccc21,inactive: 55.1 µM
3,COc1cccc2c1CCc1cc3c(N)nc(N)nc3nc1-2,inactive: 4.13 µM
4,Cc1nc(=O)[nH]c2[nH][nH]c(=O)c12,inactive: > 100 µM
5,N#Cc1ccc(/N=C(/NCC(=O)O)Nc2ccc3ccccc3c2)cc1,inactive: > 10 µM
6,COc1cccc(C2C3=C(COC3=O)Oc3cc4c(cc32)OCO4)c1 (stereo not drawn),active: 0.106 µM
7,O=CC1OC(=O)c2cc(O)c(O)c(O)c2-c2c(cc(O)c(O)c2O)C(=O)OC1C1OC(=O)c2cc(O)c(O)c(O)c2-c2c(O)c(O)c3oc(=O)c4c(c(O)c(O)c5oc(=O)c2c3c54)-c2c(cc(O)c(O)c2O)C(=O)OCC1O (stereo not drawn),inactive: 18.7 µM
8,CC(C)C1=C(O)C(=O)C2=C(C1=O)C(OC=O)C(O)C1C(C)(C)CCCC21C (stereo not drawn),inactive: 10.2 µM
9,CC(=O)N1N=C(c2c(O)ccc3ccccc23)CC1c1ccc(Cl)cc1 (stereo not drawn),inactive: 28.4 µM
10,COC(=O)[C@@H]1COC(C(C)(C)C)N1C(=O)C(c1ccccc1)c1ccccc1 (stereo partly drawn),inactive: 43.6 µM
11,COc1nc(N)nc2nc[nH]c12,inactive: 184 µM
12,O=C1C=CC(=O)c2c1cc([N+](=O)[O-])c1ccoc21,inactive: 22.9 µM
13,COc1ccc(C(SCCO)(c2ccccc2)c2ccccc2)cc1,inactive: 12.4 µM
14,O=C1N[C@H]2[C@H](O)[C@H](O)[C@@H](O)[C@H](O)[C@@H]2c2cc3c(c(O)c21)OCO3 [PANCRATISTATIN],active: 0.0384 µM
15,COc1ccc2nc(-c3cccc(N(C)C)c3)cc(O)c2c1,active: 0.222 µM
16,Cc1ccc(S(=O)(=O)NC(=O)Nc2ccc(C(=O)O)c(O)c2)cc1,inactive: > 100 µM
17,O=C(Nc1ccc(Br)c2ccccc12)c1ccc2ccccc2c1O,inactive: 2.77 µM
18,CC(=O)OCC12CCC3C4(C)CCCC(C)(C)C4CCC3(C)C1CC(C1=CC(=O)OC1O)O2 (stereo not drawn),inactive: 1.87 µM
19,CN1CC(=O)N2Cc3ccccc3-n3cccc3C2C1 (stereo not drawn),inactive: > 100 µM
20,Brc1cccc(/N=N/N2CCCC2)c1,inactive: > 100 µM
21,Cc1cc(C2(O)C=C(C(C)(C)C)C(=O)C(C(C)(C)C)=C2)c(C)cc1C1(O)C=C(C(C)(C)C)C(=O)C(C(C)(C)C)=C1,inactive: > 100 µM
22,CC(=O)N(C(=O)CC(=O)N1N=C(c2ccccc2)C(/N=N/c2ccccc2[N+](=O)[O-])C1=O)c1ccc(Cl)cc1 (stereo not drawn),inactive: > 10 µM

# From ChEMBL document CHEMBL1201862, “PubChem BioAssay data set” (2004)
